Some of the results follow.

The values below come from paper PMC7819943, “Rice protein-binding microarrays: a tool to detect cis-acting elements near promoter regions in rice”.

This test deals with T1, OsWOX13 (Oryza sativa, UniProt Q5QMM3 1-267).
T1 sequence: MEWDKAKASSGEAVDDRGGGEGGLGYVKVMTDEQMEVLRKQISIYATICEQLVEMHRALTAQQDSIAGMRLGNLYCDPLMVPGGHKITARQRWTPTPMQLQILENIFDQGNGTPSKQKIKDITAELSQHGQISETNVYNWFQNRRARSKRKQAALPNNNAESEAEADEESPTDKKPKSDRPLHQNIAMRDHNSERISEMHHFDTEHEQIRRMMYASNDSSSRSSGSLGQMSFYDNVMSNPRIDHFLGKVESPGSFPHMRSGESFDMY
Description: protein-binding microarray (RPBM); PBS, 2% BSA, 51.3 ng/ul salmon testes DNA, 50 uM zinc acetate, 200 nM TF, 25 C, 1 h; high values mean tight binding. The note with it: protein: recombinant; tags: N-terminal polyhistidine and DsRed monomer fusion (pET32a); label: CyDye5-dUTP incorporated in the synthesized complementary strand; 3' TTTTT single-stranded linker to array surface; dsDNA, one strand shown. Put shortly: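 The binding signal for each feature is its fluorescence intensity in arbitrary units. An Axon 4000B scanner was used to read a custom Agilent array that had been made double-stranded with Cy5-dUTP primer extension, blocked with 2% BSA, incubated at 25 °C for 1 h with 200 nM protein in PBS, 2% BSA, salmon testes DNA and 50 µM zinc acetate, and washed. The protein was an N-terminal polyhistidine–DsRed transcription factor fusion from E. coli BL21-CodonPlus, purified on Ni–NTA.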
Turning to “TGTTTATGCTTACTAATTACCACAAGTAACATTAAGTCAACGGAGTCACCTAGTGCAG”, the binding signal is 4750 fluorescence intensity (a.u.).

“GAAAATTGGAGAAATTGTAACCGTACCACTCCATCACATTCGGAGTCACCTAGTGCAG”: the binding signal is 32500 fluorescence intensity (a.u.).

Turning to “AGGACTACTATAATTGCAACTGAAATAAAACCTTGGCTTGCGGAGTCACCTAGTGCAG”, the binding signal was 5450 fluorescence intensity (a.u.).

For the sequence “TATGTTAGCTTCCCAATCAATTCCATGGAAATATATCATCCGGAGTCACCTAGTGCAG”, the binding signal is 6500 fluorescence intensity (a.u.).

In the case of “TGTGATTATGTTTGTTACTTCACGCAATGAGCCGTCTAGCCGGAGTCACCTAGTGCAG”, the binding signal was 22000 fluorescence intensity (a.u.).

In the case of “GTAAATAATTTTAAAGTTATTGATTGGTAAAATTCTAATTCGGAGTCACCTAGTGCAG”, the binding signal was 26900 fluorescence intensity (a.u.).

Take “AATGATTGAACGATCTCAAATCTGCTTAAATCATGTGCTACGGAGTCACCTAGTGCAG”: the binding signal was 35700 fluorescence intensity (a.u.).

“TAATAATTAAACATGAAATTAATTAAGTCATATGTGCATACGGAGTCACCTAGTGCAG”: the binding signal is 22900 fluorescence intensity (a.u.).

Regarding “CCCCTAGATTATTATATTTTAGATAATCTATTTTAGAACGCGGAGTCACCTAGTGCAG”, the binding signal is 8660 fluorescence intensity (a.u.).

Take “TGTGGTAACATAATAAATTTATAATGCCATACTAATAGGACGGAGTCACCTAGTGCAG”: the binding signal was 5340 fluorescence intensity (a.u.).

On to “TATATATATATATATATATGATATGTAGGACCAATTATCACGGAGTCACCTAGTGCAG”, for which the binding signal is 13700 fluorescence intensity (a.u.).

In the case of “AATTTGAATTGCTAATTAAATGGAGATTTGGCTAAATAGACGGAGTCACCTAGTGCAG”, the binding signal is 16200 fluorescence intensity (a.u.).

Take “CGCTCAATTCCGCTTTAATTTGGTGACTTGGCGATCGATCCGGAGTCACCTAGTGCAG”: the binding signal was 6150 fluorescence intensity (a.u.).

Regarding “AGTTTAATAATATAGGCAATTACTAACTCCAAAGATTAACCGGAGTCACCTAGTGCAG”, the binding signal was 3680 fluorescence intensity (a.u.).

For the sequence “ATTAATCATGTTTTATCATCTAATAACAATGAAAATACGACGGAGTCACCTAGTGCAG”, the binding signal is 3330 fluorescence intensity (a.u.).

For “CTGAGAAAGTTTCAATTACTAATTATGTGAAAACAAAGAACGGAGTCACCTAGTGCAG”, the binding signal was 4770 fluorescence intensity (a.u.).

Turning to “TCTTTATTTCTTGTTGATTGCAGGATCAAATCAACTAGCACGGAGTCACCTAGTGCAG”, the binding signal is 13300 fluorescence intensity (a.u.).

Consider “CATATAAATTGAATTAGAGCTATTACCTCATGAGGGGCTTCGGAGTCACCTAGTGCAG”, for which the binding signal is 39100 fluorescence intensity (a.u.).

Regarding “CTTAAATTAAGGTACGTTAGGTGAAGATAGTTGACGGTTACGGAGTCACCTAGTGCAG”, the binding signal was 9870 fluorescence intensity (a.u.).

For “CTCTTAAATTAAATTTGAGAATAAACTTTTGGATTAAAATCGGAGTCACCTAGTGCAG”, the binding signal is 5180 fluorescence intensity (a.u.).

In the case of “AAGAATAGTTAATTTCCATCTCGGTATCCTTTAACAATTGCGGAGTCACCTAGTGCAG”, the binding signal was 5890 fluorescence intensity (a.u.).

For the sequence “CGAATAAACAAATTATAATGATATTTATCTGAAATAACATCGGAGTCACCTAGTGCAG”, the binding signal was 3870 fluorescence intensity (a.u.).

Regarding “TTAATTAATAATATGTTAATGATTTTCTCATCTTACCTTACGGAGTCACCTAGTGCAG”, the binding signal was 13400 fluorescence intensity (a.u.).

In the case of “TATATGTATAAATTTATTGTAACATTCTAATACGAGGTTGCGGAGTCACCTAGTGCAG”, the binding signal was 3690 fluorescence intensity (a.u.).

For “TGAATTTATCCTAAATTAGGGTACTGCAAATTAAAGTTGGCGGAGTCACCTAGTGCAG”, the binding signal was 6100 fluorescence intensity (a.u.).

Regarding “AAGGTGACGTCAATTTTAACATGAATATGACGTCATTACTCGGAGTCACCTAGTGCAG”, the binding signal was 5610 fluorescence intensity (a.u.).

For “TTAATTAATCATGTGCTAATCCTCGCTCCATTTTACGTGTCGGAGTCACCTAGTGCAG”, the binding signal is 30300 fluorescence intensity (a.u.).

Consider “GCTAATTGCAATTTTGGCCGTCCATAAAGAGCTTGCGGCCCGGAGTCACCTAGTGCAG”, for which the binding signal was 52900 fluorescence intensity (a.u.).

With “AAAATAAATCTAGATTTTCTTTTATCTAAACTTCCAGCTACGGAGTCACCTAGTGCAG”, the binding signal is 3230 fluorescence intensity (a.u.).

Turning to “CAGACCAAGAAATAATTATTATCATCTTATAGGTGGATCACGGAGTCACCTAGTGCAG”, the binding signal was 3990 fluorescence intensity (a.u.).

Regarding “ACCTCCACTACTTATCCAATCACAATCTTTCACCACTCACCGGAGTCACCTAGTGCAG”, the binding signal was 4890 fluorescence intensity (a.u.).

On to “TTGATTTGGAACGTGGATTTTCCTCCCCAAATAAACATTGCGGAGTCACCTAGTGCAG”, for which the binding signal is 8450 fluorescence intensity (a.u.).

“ATTGAAGAAGTTGATTGGGGACCAAACCAAGACCTTCTCCCGGAGTCACCTAGTGCAG”: the binding signal was 26600 fluorescence intensity (a.u.).

In the case of “AATATCCTATTAATTGAGCCCTACTCGAGCGCTAGGCTTACGGAGTCACCTAGTGCAG”, the binding signal is 5050 fluorescence intensity (a.u.).

Consider “AGAGAAATTAATCAAGTCAGAACCACCAGTGATTCACCCCCGGAGTCACCTAGTGCAG”, for which the binding signal was 5660 fluorescence intensity (a.u.).

Take “GGGCCCAGGAATAGATTGGTGTCCGGCTGTCCGCGCCGCACGGAGTCACCTAGTGCAG”: the binding signal is 3390 fluorescence intensity (a.u.).

As to “GGGATTAGGGATTGTTTGTTACTTTGTACGTCTCCTAATACGGAGTCACCTAGTGCAG”, the binding signal is 3840 fluorescence intensity (a.u.).

“GTGTTGAATGCACTGATTTGTTCAGTGTCTGAGATTGATGCGGAGTCACCTAGTGCAG”: the binding signal was 13100 fluorescence intensity (a.u.).

On to “GAGTAGCTAATTAACTAGAGTTATTCTTCTACCTAACCAGCGGAGTCACCTAGTGCAG”, for which the binding signal is 10600 fluorescence intensity (a.u.).

As for “ATGATAGATTATTATAATTTATAAGTAAGATTACTATAATCGGAGTCACCTAGTGCAG”, the binding signal is 35100 fluorescence intensity (a.u.).

As for “CGCGTAATTTACTCACAGTCACCAGTCCGTGCCGATGCAGCGGAGTCACCTAGTGCAG”, the binding signal was 28800 fluorescence intensity (a.u.).

For “TTACTATTAATTGGATTATATAGTGGTTATGGGTTTGTGTCGGAGTCACCTAGTGCAG”, the binding signal was 34200 fluorescence intensity (a.u.).
